# Experimental data: PubChem BioAssay (Tox21)
# Where “and” joins values, the source holds several entries; their conditions need not be identical. Identical values can stand only once. The shares of active, inactive and inconclusive entries below differ from those in the screen. For some assays here: Potencies of inconclusive entries are doubtful fits and often do not repeat. Calls of active or inactive are those of the source. Unless noted, calls come from the whole dose curve; as a rule, active = well fitted curve in the direction sought with a large enough effect in the repeat runs; inconclusive = weak or mixed curves; inactive = no such curve, though single readings can be large; an effect the other way counts as inactive or inconclusive.
# Experiments:
# [1] = target: Androgen receptor (Homo sapiens) (UniProt P10275); experiment: qHTS assay to identify small molecule antagonists of the androgen receptor (AR) signaling pathway (AID 743035; active = well fitted inhibition curve with a large enough effect in the signal ratio in the repeat runs, not every such curve was filed as active; inconclusive = weak or mixed curves, or effect the other way; inactive = no such curve, though single readings can be large or run the other way; the % refers to the signal ratio; note: potency is the fitted concentration of half-maximal effect; for activity change, negative = inhibition: % is set by controls: 0 for no effect and ±100 for the full control effect); conditions: HEK293 AR-UAS-bla, R1881-stimulated, beta-lactamase FRET, 16 h; activity change, negative = inhibition: at 58.5 µM (top of the series) unless noted
# Outline: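 Using qHTS, AR-UAS-bla GripTite HEK293 cells received compound, then R1881, and were cultured 16 h at 37C/5% CO2 before a 2 h room-temperature LiveBLAzer B/G FRET substrate step and fluorescence measurement.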
# [2] = target: Androgen receptor (Homo sapiens) (UniProt P10275); experiment: qHTS assay to identify small molecule agonists of the androgen receptor (AR) signaling pathway (AID 743036; active = well fitted activation curve with a large enough effect in the signal ratio in the repeat runs, with a control signal flat, not every such curve was filed as active; inconclusive = weak or mixed curves, or effect the other way; inactive = no such curve, though single readings can be large or run the other way; the % refers to the signal ratio; note: potency is the fitted concentration of half-maximal effect); conditions: HEK293 AR-UAS-bla GripTite, beta-lactamase FRET ratio, 16 h; activation: at 62.4 µM (top of the series) unless noted
# Outline: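 AR-bla HEK293 cells, 2,000/well; 4 h preincubation 37C/5% CO2; compound (DMSO) 16 h at 37C; LiveBLAzer B/G FRET substrate 2 h RT; fluorescence intensity read-out.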
# [3] = qHTS assay to identify small molecule antagonists of the androgen receptor (AR) signaling pathway using the MDA cell line - cell viability counter screen (AID 743041; note: nearly all actives have a fitted effect of over 45% in size; note: potency is the fitted concentration of half-maximal effect; for viability change, negative = cytotoxic: % is set by controls: 0 for no effect and ±100 for the full control effect); conditions: MDA-kb2 viability, CellTiter-Fluor, 16 h, cells co-treated with R1881 androgen agonist; viability change, negative = cytotoxic: at 70.3 µM (top of the series) unless noted
# Outline: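 Same-well cytotoxicity was assessed by CellTiter-Fluor in MDA-kb2 AR-luc cells after 16 h of compound treatment under R1881 agonism.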
# [4] = target: Androgen receptor (Homo sapiens) (UniProt P10275); experiment: qHTS assay to identify small molecule antagonists of the androgen receptor (AR) signaling pathway using the MDA cell line (AID 743042; note: potency is the fitted concentration of half-maximal effect; nearly all actives have a fitted effect of over 55% in size)
# Outline: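 MDA-kb2 breast carcinoma cells carrying MMTV-luciferase (AR/GR responsive) were co-treated with compounds and the agonist R1881 for 16 h at 37C. Inhibition read as ONE-Glo luminescence; CellTiter-Fluor fluorescence measured in parallel for cytotoxicity.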
# [5] = qHTS assay to identify small molecule antagonists of the thyroid receptor (TR) signaling pathway - cell viability counter screen (AID 743064); conditions: GH3.TRE-Luc viability, CellTiter-Fluor, 24 h; activity change, negative = cytotoxic: at 70.3 µM (top of the series); note: potency is the fitted concentration of half-maximal effect; nearly all actives have a fitted effect of over 50% in size
# Outline: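 GH3.TRE-Luc cells, 4 h pre-plating; cpd + T3 1 nM final; 37 °C 23.5 h; CellTiter-Fluor 30 min; fluorescence read.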
# [6] = test system: thyroid hormone receptor (rat, GH3 cells); experiment: qHTS assay to identify small molecule agonists of the thyroid receptor (TR) signaling pathway (AID 743066; calls by dose curve; note: potency is the fitted concentration of half-maximal effect; for activation: % is set by controls: 0 for no effect and ±100 for the full control effect); conditions: GH3.TRE-Luc cells, TR agonist luciferase, 24 h; activation: at 83.9 µM (top of the series) unless noted
# [7] = target: Estrogen receptor (Homo sapiens) (UniProt P03372); experiment: qHTS assay to identify small molecule antagonists of the estrogen receptor alpha (ER-alpha) signaling pathway (AID 743069; active = well fitted curve in the direction sought with a large enough effect in the signal ratio in the repeat runs, not every such curve was filed as active; inconclusive = weak or mixed curves, or effect the other way; inactive = no such curve, though single readings can be large or run the other way; the % refers to the signal ratio; note: potency is the fitted concentration of half-maximal effect); conditions: HEK293 ER-alpha-UAS-bla, beta-lactamase ratio, antagonist mode; activity, negative = inhibition: at 69.4 µM (top of the series)
# Outline: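 Reporter cells (ER-alpha-bla, HEK293 background) are conditioned overnight in stripped-serum medium (2% charcoal-stripped FBS). Compound and 17beta-estradiol exposure runs 18 hr at 37C, 5% CO2.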
# [8] = target: Estrogen receptor (Homo sapiens) (UniProt P03372); experiment: qHTS assay to identify small molecule agonists of the estrogen receptor alpha (ER-alpha) signaling pathway (AID 743075; calls by dose curve;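 note: HEK293 GripTite cells with ER-alpha and UAS-driven beta-lactamase reporter; % is set by controls: 0 for no effect and ±100 for the full control effect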); conditions: HEK293 ER-alpha-UAS-bla, beta-lactamase FRET ratio, 18 h; activation: at 70.1 µM (top of the series)
# [9] = qHTS assay to identify aromatase inhibitors - cell viability counter screen (AID 743084);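 note: cells stimulated with testosterone during compound exposure; potency is the fitted concentration of half-maximal effect; nearly all actives have a fitted effect of over 55% in size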
# [10] = target: Peroxisome proliferator-activated receptor gamma (Homo sapiens) (UniProt P37231); experiment: qHTS assay to identify small molecule agonists of the peroxisome proliferator-activated receptor gamma (PPARg) signaling pathway (AID 743094; active = well fitted activation curve with a large enough effect in the signal ratio in the repeat runs, not every such curve was filed as active; inconclusive = weak or mixed curves, or effect the other way; inactive = no such curve, though single readings can be large or run the other way; the % refers to the signal ratio; note: potency is the fitted concentration of half-maximal effect); conditions: HEK293H PPARg-UAS-bla, beta-lactamase FRET ratio, 17 h; activation: at 57 µM (top of the series) unless noted
# Outline: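 Following 5 h plating at 37C, PPARg-bla HEK293H cells receive compound or DMSO for 17 h; fluorescence intensity is recorded after LiveBLAzer B/G loading for 1 h at room temperature.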
# [11] = qHTS assay to identify small molecule antagonists of the estrogen receptor alpha (ER-alpha) signaling pathway using the BG1 cell line - cell viability counter screen (AID 743081);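 note: compound given together with 17beta-estradiol as the ER stimulus; potency is the fitted concentration of half-maximal effect; nearly all actives have a fitted effect of over 45% in size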
# [12] = target: Estrogen receptor (Homo sapiens) (UniProt P03372); experiment: qHTS assay to identify small molecule agonists of the estrogen receptor alpha (ER-alpha) signaling pathway using the BG1 cell line (AID 743079); conditions: BG1Luc4E2 cells, ERE-luciferase agonist, 22 h; activation: at 70.3 µM (top of the series) unless noted; note: potency is the fitted concentration of half-maximal effect; nearly all actives have a fitted effect of over 20% in size
# [13] = target: Aryl hydrocarbon receptor (Homo sapiens) (UniProt P35869); experiment: qHTS assay to identify small molecule that activate the aryl hydrocarbon receptor (AhR) signaling pathway (AID 743085); note: nearly all actives have a fitted effect of over 15% in size; note: potency is the fitted concentration of half-maximal effect
# Outline: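 Luminescence read-out: ONE-Glo reagent, 30 min at room temperature, in HG2L7.5c1 HepG2 reporter cells treated 24 h at 37C. Viability was measured beforehand by CellTiter-Fluor fluorescence after 30 min at 37C.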
# [14] = target: Peroxisome proliferator-activated receptor gamma (Homo sapiens) (UniProt P37231); experiment: qHTS assay to identify small molecule antagonists of the peroxisome proliferator-activated receptor gamma (PPARg) signaling pathway (AID 743191; calls by dose curve; note: potency is the fitted concentration of half-maximal effect; nearly all actives have a fitted effect of over 30% in size); conditions: HEK293H PPARg-UAS-bla, beta-lactamase ratio, antagonist, 17 h; ratio activity, negative = inhibition: at 62.6 µM (top of the series) unless noted
# Outline: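 GeneBLAzer PPARg UAS-bla HEK293H cells, 5 h post-plating, exposed to compounds 17 h at 37C. LiveBLAzer B/G FRET substrate added for 1 h at room temperature; beta-lactamase reporter read by fluorescence intensity.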
# [15] = qHTS assay to identify small molecule antagonists of the estrogen receptor alpha (ER-alpha) signaling pathway - cell viability counter screen (AID 743074; calls by dose curve;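 note: HEK293 cells carrying ER-alpha-UAS-bla reporter stimulated with 17beta-estradiol; potency is the fitted concentration of half-maximal effect; nearly all actives have a fitted effect of over 45% in size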)
# [16] = qHTS assay to identify small molecule antagonists of the thyroid receptor (TR) signaling pathway (AID 743065); note: potency is the fitted concentration of half-maximal effect; nearly all actives have a fitted effect of over 55% in size
# Outline: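 GH3.TRE-Luc rat pituitary cells (two TREs driving luciferase) were dosed with compound, then stimulated with 1 nM T3 (final) for 23.5 h at 37 C. ONE-Glo luminescence was the read-out, with CellTiter-Fluor fluorescence as the cytotoxicity counter-screen.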
# [17] = qHTS assay to identify small molecule antagonists of the estrogen receptor alpha (ER-alpha) signaling pathway using the BG1 cell line (AID 743080; calls by dose curve;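 note: BG1 cells stimulated with 17beta-estradiol alongside compound; potency is the fitted concentration of half-maximal effect; nearly all actives have a fitted effect of over 25% in size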); conditions: BG1Luc4E2 ERE-luciferase antagonist mode, luminescence; activity change, negative = inhibition: at 70.3 µM (top of the series) unless noted
# Outline: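 BG1Luc4E2, endogenous ER-alpha, 4xERE-luc; 5 d charcoal-stripped FBS, phenol red free; 24 h plating; cpd + 17beta-estradiol 21.5 h, 37 C/5% CO2; CellTiter-Fluor viability 30 min, then ONE-Glo luciferase 30 min RT.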
# [18] = qHTS assay to identify small molecule that activate the aryl hydrocarbon receptor (AhR) signaling pathway - cell viability counter screen (AID 743086); note: potency is the fitted concentration of half-maximal effect; nearly all actives have a fitted effect of over 45% in size
# Outline: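 HepG2-AhR-luc (HG2L7.5c1) cells, 4000/well, treated 24 h at 37 C with compound; viability measured as CellTiter-Fluor fluorescence after 30 min in the same wells as the luciferase read.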
# Tags give direction and shape of the fitted curve or compound fluorescence and quenching.
# UniProt P35869, sequence (P35869 whole entry, looked up): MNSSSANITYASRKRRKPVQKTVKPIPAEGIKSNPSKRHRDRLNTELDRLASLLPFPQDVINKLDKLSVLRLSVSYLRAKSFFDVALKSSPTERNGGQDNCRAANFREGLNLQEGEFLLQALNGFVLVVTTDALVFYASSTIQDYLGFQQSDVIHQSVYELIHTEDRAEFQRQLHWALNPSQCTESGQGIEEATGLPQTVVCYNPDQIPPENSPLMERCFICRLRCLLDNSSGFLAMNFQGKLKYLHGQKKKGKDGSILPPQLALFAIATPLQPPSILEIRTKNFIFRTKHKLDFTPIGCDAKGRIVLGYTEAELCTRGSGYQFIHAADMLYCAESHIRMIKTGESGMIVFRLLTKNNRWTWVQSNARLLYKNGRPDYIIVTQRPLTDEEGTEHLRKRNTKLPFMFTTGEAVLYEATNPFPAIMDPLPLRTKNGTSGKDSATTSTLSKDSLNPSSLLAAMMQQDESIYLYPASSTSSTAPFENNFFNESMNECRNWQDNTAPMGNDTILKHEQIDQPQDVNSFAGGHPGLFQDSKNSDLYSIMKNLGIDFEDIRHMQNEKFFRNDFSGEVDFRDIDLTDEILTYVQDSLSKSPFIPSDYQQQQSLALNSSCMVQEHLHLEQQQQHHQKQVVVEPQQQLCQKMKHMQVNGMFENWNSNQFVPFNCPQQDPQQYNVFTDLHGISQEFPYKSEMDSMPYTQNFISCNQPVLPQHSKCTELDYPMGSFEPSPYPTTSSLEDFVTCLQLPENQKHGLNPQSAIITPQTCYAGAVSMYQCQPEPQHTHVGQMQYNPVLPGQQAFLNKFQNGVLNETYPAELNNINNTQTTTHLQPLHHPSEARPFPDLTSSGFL
# UniProt P03372, sequence (P03372 whole entry, looked up): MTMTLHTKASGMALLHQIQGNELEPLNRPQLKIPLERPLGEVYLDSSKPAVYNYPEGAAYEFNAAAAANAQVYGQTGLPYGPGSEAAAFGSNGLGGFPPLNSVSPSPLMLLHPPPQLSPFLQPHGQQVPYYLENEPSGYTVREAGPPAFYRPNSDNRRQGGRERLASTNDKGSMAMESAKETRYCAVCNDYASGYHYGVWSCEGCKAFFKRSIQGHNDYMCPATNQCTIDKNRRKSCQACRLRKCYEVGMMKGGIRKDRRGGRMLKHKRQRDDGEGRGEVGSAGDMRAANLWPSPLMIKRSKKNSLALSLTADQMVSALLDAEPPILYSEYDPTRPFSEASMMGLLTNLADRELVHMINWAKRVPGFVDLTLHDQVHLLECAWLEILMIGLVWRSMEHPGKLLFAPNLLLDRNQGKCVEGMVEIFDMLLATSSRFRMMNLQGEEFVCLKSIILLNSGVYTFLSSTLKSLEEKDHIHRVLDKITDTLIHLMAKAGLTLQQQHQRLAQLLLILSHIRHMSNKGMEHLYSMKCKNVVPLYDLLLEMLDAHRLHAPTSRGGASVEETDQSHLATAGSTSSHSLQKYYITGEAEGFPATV
# UniProt P37231, sequence (P37231 whole entry, looked up): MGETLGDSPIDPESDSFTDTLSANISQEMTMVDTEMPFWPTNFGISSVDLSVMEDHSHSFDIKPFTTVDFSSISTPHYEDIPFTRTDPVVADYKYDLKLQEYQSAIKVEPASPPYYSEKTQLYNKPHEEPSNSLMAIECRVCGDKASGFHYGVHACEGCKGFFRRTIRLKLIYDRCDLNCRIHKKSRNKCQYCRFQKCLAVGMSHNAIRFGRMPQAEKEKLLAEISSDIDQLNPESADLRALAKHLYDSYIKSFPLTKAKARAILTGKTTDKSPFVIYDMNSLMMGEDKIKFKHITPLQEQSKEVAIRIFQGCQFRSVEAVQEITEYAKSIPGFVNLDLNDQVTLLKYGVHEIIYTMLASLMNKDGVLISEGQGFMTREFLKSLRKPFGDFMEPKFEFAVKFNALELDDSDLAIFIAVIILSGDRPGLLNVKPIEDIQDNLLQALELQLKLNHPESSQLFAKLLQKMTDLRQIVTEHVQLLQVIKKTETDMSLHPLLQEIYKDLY
# UniProt P10275, sequence (P10275 whole entry, looked up): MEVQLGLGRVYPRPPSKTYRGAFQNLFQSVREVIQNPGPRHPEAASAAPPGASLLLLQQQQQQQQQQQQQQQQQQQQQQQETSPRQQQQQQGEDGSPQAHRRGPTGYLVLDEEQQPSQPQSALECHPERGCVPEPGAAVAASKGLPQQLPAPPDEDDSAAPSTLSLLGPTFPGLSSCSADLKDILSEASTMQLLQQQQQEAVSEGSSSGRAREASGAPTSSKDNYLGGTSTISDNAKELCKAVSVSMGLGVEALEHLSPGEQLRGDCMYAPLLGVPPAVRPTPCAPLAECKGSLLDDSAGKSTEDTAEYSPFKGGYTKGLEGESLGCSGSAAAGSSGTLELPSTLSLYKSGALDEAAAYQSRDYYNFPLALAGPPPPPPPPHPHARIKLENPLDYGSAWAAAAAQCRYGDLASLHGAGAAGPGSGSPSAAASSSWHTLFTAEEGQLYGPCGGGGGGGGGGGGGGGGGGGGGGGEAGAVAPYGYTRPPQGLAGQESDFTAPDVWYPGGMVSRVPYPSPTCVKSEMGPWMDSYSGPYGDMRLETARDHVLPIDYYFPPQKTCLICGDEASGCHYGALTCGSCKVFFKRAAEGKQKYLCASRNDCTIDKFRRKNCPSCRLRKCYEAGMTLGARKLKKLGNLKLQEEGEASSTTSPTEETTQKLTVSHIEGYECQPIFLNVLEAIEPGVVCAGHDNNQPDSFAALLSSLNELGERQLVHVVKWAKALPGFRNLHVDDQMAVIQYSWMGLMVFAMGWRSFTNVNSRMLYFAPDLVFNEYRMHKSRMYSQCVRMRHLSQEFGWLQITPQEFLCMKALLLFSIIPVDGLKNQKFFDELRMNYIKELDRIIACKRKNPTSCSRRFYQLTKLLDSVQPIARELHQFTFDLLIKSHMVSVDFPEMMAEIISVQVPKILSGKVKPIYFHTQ
compound,measurement,setting,value
O=[N+]([O-])C(Br)(CO)CO,Potency,[1],"inconclusive: 49 µM [rising, partial curve, poor fit]"
same,"activity change, negative = inhibition",[1],inconclusive: 31.2%
same,Potency,[2],"inconclusive: 24.5 µM [falling, partial curve, poor fit]"
same,"viability change, negative = cytotoxic",[3],inconclusive: -35.2% [cytotoxic]
same,Potency,[4],"inconclusive: 68.6 µM [inhibitor, single point]"
same,Potency,[5],active: 23.7 µM and active: 21.7 µM
same,activation,[6],inconclusive: -9.12% [phenotype inactive]
same,"activity, negative = inhibition",[7],inconclusive: 17.4%
same,Potency,[8],inactive
same,Potency,[9],"inconclusive: 29.8 µM [cytotoxic, partial curve, poor fit] and active: 61.1 µM"
same,activation,[10],inconclusive: 3.78%
O=[N+]([O-])c1c(Cl)c(Cl)c(Cl)c(Cl)c1Cl,Potency,[1],"inconclusive: 15.4 µM [rising, partial curve, poor fit]"
same,"activity change, negative = inhibition",[1],inconclusive: -30.7%
same,Potency,[2],"inconclusive: 24.5 µM [rising, partial curve, poor fit]"
same,Potency,[5],"inconclusive: 21.6 µM [cytotoxic, partial curve, poor fit]"
same,Potency,[11],"inconclusive: 68.6 µM [cytotoxic, single point]"
same,Potency,[9],"inconclusive: 61.1 µM [cytotoxic, single point]"
same,Potency,[10],"inconclusive: 49 µM [rising, partial curve]"
CCOc1cc(C(C)(C)C)ccc1C1COC(c2c(F)cccc2F)=N1 (stereo not drawn),Potency,[1],inconclusive: 33.4 µM
same,Potency,[2],inactive
same,Potency,[4],"inconclusive: 46.7 µM [inhibitor, single point]"
same,Potency,[5],active: 18.6 µM
same,activation,[6],inconclusive: -9.6% [phenotype inactive]
same,Potency,[7],"inconclusive: 33.4 µM [rising, single point]"
same,Potency,[12],"inconclusive: 41.6 µM [inhibitor, single point]"
same,Potency,[9],"inconclusive: 46.7 µM [cytotoxic, single point]"
same,Potency,[13],"inconclusive: 16.6 µM [activator, partial curve]"
same,Potency,[14],"inconclusive: 37.4 µM [inhibitor, single point]"
Cc1cc(Cl)ccc1OCCCC(=O)O,Potency,[1],"inconclusive: 12.8 µM [rising, full curve, poor fit]"
same,"activity change, negative = inhibition",[1],inconclusive: 3.79%
same,Potency,[5],"inconclusive: 2.84 µM [rising, partial curve, poor fit]"
same,Potency,[15],"inconclusive: 22.7 µM [cytotoxic, single point] and inconclusive: 19.3 µM [cytotoxic, full curve, poor fit]"
same,Potency,[13],"inconclusive: 25.3 µM [activator, partial curve, poor fit] and inactive"
CCN1CCC2(CC1)COc1cc3c(cc12)N(C(=O)c1ccc(-c2ccc(-c4nnc(C)o4)cc2C)cc1)CC3,Potency,[1],"inconclusive: 22.6 µM [rising, single point]"
same,activation,[2],inconclusive: -20%
same,Potency,[3],"inconclusive: 63.3 µM [cytotoxic, single point]"
same,Potency,[16],active: 2.52 µM
same,Potency,[6],"inconclusive: 2.83 µM [inhibitor, partial curve, poor fit]"
same,Potency,[7],"inconclusive: 45.2 µM [rising, partial curve]"
same,Potency,[15],active: 50.7 µM
same,Potency,[12],"inconclusive: 31.7 µM [inhibitor, partial curve]"
same,Potency,[17],"inconclusive: 63.3 µM [falling, partial curve]"
same,Potency,[11],"inconclusive: 31.7 µM [cytotoxic, partial curve, poor fit]"
same,Potency,[18],active: 28.3 µM
same,Potency,[10],"inconclusive: 4.03 µM [rising, full curve, poor fit]"
same,Potency,[14],"inconclusive: 3.2 µM [rising, full curve]"
CC(C)(O)c1cnn2c(-c3ccc(F)c(-c4c(F)cccc4C#N)c3)cnc2n1,Potency,[1],"inconclusive: 3.89 µM [rising, full curve, poor fit]"
same,Potency,[2],inconclusive: 54.9 µM [fluorescent]
same,Potency,[3],"inconclusive: 34.4 µM [cytotoxic, full curve]"
same,Potency,[5],inconclusive: 68.6 µM
same,Potency,[16],"inconclusive: 30.6 µM [inhibitor, partial curve]"
same,Potency,[10],inconclusive: 54.9 µM [fluorescent]
same,Potency,[14],inconclusive: 54.9 µM [fluorescent]
